# From PubChem BioAssay AID485344 (National Center for Advancing Translational Sciences (NCATS), 2010)
# The whole screen tested about 340,000 compounds, of which about 6,900 (2%) were called active. Rule as the data show it: active = inhibition above about 30%; inactive = below that, where a call was filed. This is a selection; strong and weak results do not stand in their true shares. Entries without a call were filed so in the source.
# Molecular target: D(2) dopamine receptor (Homo sapiens) (UniProt P14416)
# Assay: HTS Assay for Allosteric Antagonists of the Human D2 Dopamine Receptor: Primary Screen for Antagonists; also: 0% is about no effect
# Conditions: HEK293 TREx D2 cells, calcium flux, dopamine EC80; at 10 µM; stronger effect = higher value
# Procedure, shortened: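 Overnight-induced (tetracycline, 30 C) HEK293 T-REx cells carrying force-coupled D2 receive a no-wash calcium dye, then compound, then EC80 dopamine at 180 s; signals are read kinetically throughout.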
# UniProt P14416, sequence (P14416 whole entry, looked up): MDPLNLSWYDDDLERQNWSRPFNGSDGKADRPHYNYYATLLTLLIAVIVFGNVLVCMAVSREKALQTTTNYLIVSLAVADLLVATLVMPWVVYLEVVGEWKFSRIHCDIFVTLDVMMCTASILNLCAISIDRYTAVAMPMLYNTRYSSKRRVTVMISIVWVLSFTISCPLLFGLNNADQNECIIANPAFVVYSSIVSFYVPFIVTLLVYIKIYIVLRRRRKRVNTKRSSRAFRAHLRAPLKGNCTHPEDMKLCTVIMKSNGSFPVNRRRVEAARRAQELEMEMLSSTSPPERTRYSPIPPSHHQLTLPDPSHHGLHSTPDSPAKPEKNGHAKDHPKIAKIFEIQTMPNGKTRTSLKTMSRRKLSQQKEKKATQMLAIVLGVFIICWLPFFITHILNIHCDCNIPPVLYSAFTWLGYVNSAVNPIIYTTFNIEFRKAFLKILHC
row,SMILES,inhibition
1,COC(=O)CN1C(=O)CSc2ccc(S(=O)(=O)Nc3cccc(Cl)c3C)cc21,1.12%
2,CCOc1ccc(NS(=O)(=O)c2ccc3[nH]cc(C(=O)NCC4CCCO4)c(=O)c3c2)cc1 (stereo not drawn),-15%
3,Cc1cc(=O)n(CC(=O)N2CCN(c3ccc(F)cc3)CC2)c2c1c(C)nn2C,26.2%
4,COc1ccc(NCc2cc3ccc(OC)cc3n(CC(=O)Nc3cc(Cl)ccc3C)c2=O)cc1,-16.1%
5,COc1ccccc1NC(=O)C1CCC(CNS(=O)(=O)c2ccc3c(c2)CC(C)N3C(C)=O)CC1 (stereo not drawn),2.27%
6,Cc1cc(-n2c(C)nc3ccccc3c2=O)ccc1NC(=O)c1ccc([N+](=O)[O-])cc1,-27.2%
7,Cc1onc(-c2c(Cl)cccc2Cl)c1CO/N=C(\C#N)c1c(Cl)cccc1Cl,active: 30.1%
8,O=C(Nc1ccc(S(=O)(=O)N2CCCCCC2)cc1)c1cc(=O)c2ccccc2o1,4.18%
9,Clc1ccc(SCCCN2CCCCC2)cc1,active: 38.4%
10,CCOC(=O)c1cc2c(c(CSc3nc4ccccc4c(=O)n3Cc3ccco3)c1)OCOC2,active: 30.7%
11,O=C(Cn1c(=O)c2cccn2c2cccnc21)NCc1ccccc1F,-7.71%
12,CN1CCN(C(CNC(=O)C(=O)Nc2cccc(Cl)c2)c2ccc3c(c2)OCO3)CC1 (stereo not drawn),-15.2%
13,Cc1ccc(Cl)c(OCCCCN(C)Cc2ccccc2)c1,active: 45.5%
14,O=S(=O)(Nc1ccc(-c2ccc(N3CCCC3)nn2)cc1)c1cc(F)ccc1F,2.02%
15,CC1=C(C(=O)Nc2ccc(C)cc2C)C(c2ccccc2F)n2nc(SCC(=O)c3ccc(C)cc3)nc2N1 (stereo not drawn),18.8%
16,CCc1ccc(NC(=O)c2cnc3sc(N4CCCC4)nn3c2=O)cc1,-5.2%
17,Cc1cc2nc(-c3ccc(OCc4ccccc4)cc3)cc(C(F)(F)F)n2n1,4.85%
18,Cc1ccc2[nH]c(=O)c3cc(C(=O)NCCc4ccc(Cl)cc4)sc3c2c1,1.43%
19,O=C(NCc1ccc(Cl)cc1)C1CCCN(C(=O)c2ccc(Cl)cc2)C1 (stereo not drawn),active: 38.4%
20,CC1CCN(CCCCOc2ccccc2F)CC1,active: 81.5%
21,O=C(c1ccc2c(c1)N(Cc1cccc(Cl)c1)C(=O)c1ccccc1S2)N1CCOCC1,-8.7%
22,c1ccc(OCCn2c(COc3ccccc3)nc3ccccc32)cc1,-0.818%
23,O=C1c2oc3ccccc3c(=O)c2C(c2cccc(Cl)c2)N1c1ccccn1 (stereo not drawn),3.34%
24,Cc1ccc(NC(=O)Cn2c(=O)n(Cc3ccc4c(c3)OCO4)c(=O)c3ccc(C(=O)NC4CCCCC4)cc32)c(C)c1,-9.44%

row,SMILES,inhibition
1,CCn1c2ccccc2c2cc(CN3CCN(Cc4ccccc4C)CC3)ccc21,-2.03%
2,COc1ccccc1C(=O)Nc1ccc(OCc2cc(=O)n3cc(C)sc3n2)cc1,11.9%
3,COc1ccc(C)cc1NC(=O)c1ccc2c(c1)nnn2C1CCCC1,-5.72%
4,CCc1nn(CCCC(=O)NC(C)c2ccccc2)c(=O)c2cc3occc3n12 (stereo not drawn),-1.26%
5,Cn1c(SCc2ccccc2F)nc2c([nH]c3ccccc32)c1=O,-12.6%
6,CCCCNC(=O)C(CC)Sc1nc2ccccc2c(=O)n1CCc1ccc(OC)c(OC)c1 (stereo not drawn),-10.9%
7,Cc1ccc(Cn2cc(CCC(=O)NCc3ccc(OC(C)C)cc3)c3ccccc32)cc1,4.46%
8,COc1cccc(C2CC(c3cccs3)=NN2C(=O)CSC2=NCCS2)c1OC (stereo not drawn),active: 31.4%
9,C/C=C/C=C\C(=O)Nc1cccc(C2=NOC3(C2)C[C@H](C(N)=O)N(C(=O)CC#N)C3)c1 (stereo partly drawn),active: 33.2%
10,CCc1ccc(S(=O)(=O)c2nnn3c2nc(NCCNC(C)=O)c2cc(Cl)ccc23)cc1,-2.65%
11,CC(C)(C)NC(=O)c1oc2ccccc2c1NC(=O)c1ccc(F)cc1,-8.44%
12,COc1ccc(CCN2C(=O)CN(C3CCC(C)CC3)C(=O)C2c2ccc(OC(C)C)c(OC)c2)cc1OC (stereo not drawn),1.15%
13,O=C1CCCN1Cc1ccccc1,active: 30.4%
14,Cc1ccccc1C(=O)c1cccn1CC(=O)NCc1cccc(Cl)c1,-2.49%
15,O=C(Cn1c(=O)n(-c2ccc(Cl)cc2)c(=O)c2c3c(sc21)CCC3)c1ccccc1,1.52%
16,CCOC(=O)C1(CC2CC2)CCN(Cc2ccc(C(=O)OC)cc2)CC1,active: 71.8%
17,CCOC(=O)c1c(NC(=O)CSc2cn(CCNC(=O)c3ccccc3F)c3ccccc23)sc2c1CCCC2,-11.8%
18,COCCCNC(=O)c1ccc2c(c1)NC(=O)C(C(C)C)N2 (stereo not drawn),0.344%
19,CCOC(=O)c1ccc(NC(=O)c2nn(C)c3c2COc2ccccc2-3)cc1,24.1%
20,CC(C)c1ccc(OCc2cc(=O)n3c(-c4ccccc4)csc3n2)cc1,20.6%
21,COc1cc(-c2cc(OC)c3c(C)oc(C)c3c(=O)c2)ccc1OC(=O)c1cccc(Cl)c1,-17.7%
22,COc1ccc(NC(=O)CCCN2C(=O)COc3ccc(C)cc32)cc1OC,5.06%
23,CCOc1ccc(CNC(=O)CCCn2c(=O)c3cccn3c3ccc(F)cc32)cc1,2.39%
24,CC(=O)N1CCc2c(sc3c2c(=O)n(Cc2ccccc2)c(=O)n3CC(=O)Nc2ccc(C)c(F)c2)C1,-12.9%
